{
  "source": "the supplement of paper PMC8728848",
  "binders": {"B1": {"name": "Pa IMPa (Pseudomonas aeruginosa), Q9I5W4 (protein)", "chain": "MSLSTTAFPSLQGENMSRSPIPRHRALLAGFCLAGALSAQAATQEEILDAALVSGDSSQLTDSHLVALRLQQQVERIRQTRTQLLDGLYQNLSQAYDPGAASMWVLPANPDNTLPFLIGDKGRVLASLSLEAGGRGLAYGTNVLTQLSGTNAAHAPLLKRAVQWLVNGDPGAATAKDFKVSVVGVDKTAALNGLKSAGLQPADAACNALTDASCASTSKLLVLGNGASAASLSATVRARLQAGLPILFVHTNGWNQSSTGQQILAGLGLQEGPYGGNYWDKDRVPSSRTRTRSVELGGAYGQDPALVQQIVDGSWRTDYDWSKCTSYVGRTTCDDVPGLSDFSKRVDVLKGALDAYNQKAQNLFALPGTTSLRLWLLWADAVRQNIRYPMDKAADTARFQETFVADAIVGYVREAGAAQKELGSYAGQRQQSMPVSGSEETLTLTLPSAQGFTAIGRMAAPGKRLSIRIEDAGQASLAVGLNTQRIGSTRLWNTRQYDRPRFLKSPDIKLQANQSVALVSPYGGLLQLVYSGATPGQTVTVKVTGAASQPFLDIQPGEDSSQAIADFIQALDADKADWLEIRSGSVEVHAKVEKVRGSIDKDYGGDVQRFIRELNEVFIDDAYTLAGFAIPNQAKTPAIQQECAARGWDCDSETLHKLPGTQHINVDQYAQCGGGCSGNPYDQTWGLNPRGWGESHELGHNLQVNRLKVYGGRSGEISNQIFPLHKDWRVLREFGQNLDDTRVNYRNAYNLIVAGRAEADPLAGVYKRLWEDPGTYALNGERMAFYTQWVHYWADLKNDPLQGWDIWTLLYLHQRQVDKSDWDANKAALGYGTYAQRPGNSGDASSTDGNDNLLLGLSWLTQRDQRPTFALWGIRTSAAAQAQVAAYGFAEQPAFFYANNRTNEYSTVKLLDMSQGSPAWPFP"}},
  "assay_in_all_cases": "glycan array binding signal (z-score within array); higher = stronger binding",
  "conditions_in_all_cases": "glycan notation: IUPAC condensed, linker removed",
  "key": {"[1]": {"molecular_target": "Gal(a1-3)Gal(b1-4)GlcNAc(b1-2)Man", "method_in_brief": "(§1)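 Glycan array data were curated from 3228 arrays in the Consortium for Functional Glycomics database and kept only where the protein sequence was available. Glycan names were converted to IUPAC-condensed notation, and columns mapping to the same glycan were averaged. The binding signal is a within-array Z-score, averaged across arrays of the same protein sequence at different concentrations or buffers and across linkers. Negative Z-scores can be read as non-binding.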"}, "[2]": {"molecular_target": "Gal(a1-3)Gal(b1-4)GlcNAc(b1-2)Man(a1-3)[Gal(a1-3)Gal(b1-4)GlcNAc(b1-2)Man(a1-6)]Man(b1-4)GlcNAc(b1-4)GlcNAc", "method_in_brief": "as §1"}, "[3]": {"molecular_target": "Gal(a1-3)Gal(b1-4)GlcNAc(b1-3)GalNAc", "method_in_brief": "as §1"}, "[4]": {"molecular_target": "Gal(a1-3)Gal(b1-4)GlcNAc(b1-6)GalNAc", "method_in_brief": "as §1"}, "[5]": {"molecular_target": "Gal(a1-3)Gal(b1-4)[Fuc(a1-3)]GlcNAc", "method_in_brief": "as §1"}, "[6]": {"molecular_target": "Gal(a1-3)Gal(b1-4)[Fuc(a1-3)]GlcNAc(b1-2)Man(a1-3)[Gal(a1-3)Gal(b1-4)[Fuc(a1-3)]GlcNAc(b1-2)Man(a1-6)]Man(b1-4)GlcNAc(b1-4)GlcNAc", "method_in_brief": "as §1"}, "[7]": {"molecular_target": "Gal(a1-3)GalNAc", "method_in_brief": "as §1"}, "[8]": {"molecular_target": "Gal(a1-3)[Gal(a1-4)]Gal(b1-4)GlcNAc", "method_in_brief": "as §1"}, "[9]": {"molecular_target": "Gal(a1-4)Gal(b1-3)GlcNAc(b1-2)Man(a1-3)[Gal(a1-4)Gal(b1-3)GlcNAc(b1-2)Man(a1-6)]Man(b1-4)GlcNAc(b1-4)GlcNAc", "method_in_brief": "as §1"}, "[10]": {"molecular_target": "Gal(a1-4)Gal(b1-4)Glc", "method_in_brief": "as §1"}, "[11]": {"molecular_target": "Gal(a1-4)Gal(b1-4)GlcNAc", "method_in_brief": "as §1"}, "[12]": {"molecular_target": "Gal(a1-4)Gal(b1-4)GlcNAc(b1-2)Man(a1-3)[Gal(a1-4)Gal(b1-4)GlcNAc(b1-2)Man(a1-6)]Man(b1-4)GlcNAc(b1-4)GlcNAc", "method_in_brief": "as §1"}, "[13]": {"molecular_target": "Gal(a1-4)Gal(b1-4)GlcNAc(b1-3)Gal(b1-4)Glc", "method_in_brief": "as §1"}, "[14]": {"molecular_target": "Gal(a1-4)GlcNAc", "method_in_brief": "as §1"}, "[15]": {"molecular_target": "Gal(a1-6)Glc", "method_in_brief": "as §1"}, "[16]": {"molecular_target": "Gal(b1-2)Gal", "method_in_brief": "as §1"}, "[17]": {"molecular_target": "Gal(b1-3)Gal", "method_in_brief": "as §1"}, "[18]": {"molecular_target": "Gal(b1-3)Gal(b1-4)GlcNAc", "method_in_brief": "as §1"}, "[19]": {"molecular_target": "Gal(b1-3)GalNAc", "method_in_brief": "as §1"}, "[20]": {"molecular_target": "Gal(b1-3)GalNAc(a1-3)[Fuc(a1-2)]Gal(b1-4)Glc", "method_in_brief": "as §1"}, "[21]": {"molecular_target": "Gal(b1-3)GalNAc(a1-3)[Fuc(a1-2)]Gal(b1-4)GlcNAc", "method_in_brief": "as §1"}, "[22]": {"molecular_target": "Gal(b1-3)GalNAc(b1-3)Gal", "method_in_brief": "as §1"}, "[23]": {"molecular_target": "Gal(b1-3)GalNAc(b1-3)Gal(a1-4)Gal(b1-4)Glc", "method_in_brief": "as §1"}, "[24]": {"molecular_target": "Gal(b1-3)GalNAc(b1-4)Gal(b1-4)Glc", "method_in_brief": "as §1"}, "[25]": {"molecular_target": "Gal(b1-3)GalNAc(b1-4)[Neu5Ac(a2-3)]Gal(b1-4)Glc", "method_in_brief": "as §1"}, "[26]": {"molecular_target": "Gal(b1-3)GlcNAc", "method_in_brief": "as §1"}, "[27]": {"molecular_target": "Gal(b1-3)GlcNAc(a1-3)Gal(b1-4)GlcNAc", "method_in_brief": "as §1"}, "[28]": {"molecular_target": "Gal(b1-3)GlcNAc(a1-6)Gal(b1-4)GlcNAc", "method_in_brief": "as §1"}, "[29]": {"molecular_target": "Gal(b1-3)GlcNAc(b1-2)Man", "method_in_brief": "as §1"}, "[30]": {"molecular_target": "Gal(b1-3)GlcNAc(b1-2)Man(a1-3)[Gal(b1-3)GlcNAc(b1-2)Man(a1-6)]Man(b1-4)GlcNAc(b1-4)GlcNAc", "method_in_brief": "as §1"}},
  "note": "The other results are listed elsewhere or left out.",
  "data": [
    {"binder": "B1", "values": [
      {"measurement": "glycan array binding signal (z-score)", "setting": "[1]", "result": 0.435},
      {"measurement": "glycan array binding signal (z-score)", "setting": "[2]", "result": -0.24},
      {"measurement": "glycan array binding signal (z-score)", "setting": "[3]", "result": -0.223},
      {"measurement": "glycan array binding signal (z-score)", "setting": "[4]", "result": -0.318},
      {"measurement": "glycan array binding signal (z-score)", "setting": "[5]", "result": -0.206},
      {"measurement": "glycan array binding signal (z-score)", "setting": "[6]", "result": -0.155},
      {"measurement": "glycan array binding signal (z-score)", "setting": "[7]", "result": -0.259},
      {"measurement": "glycan array binding signal (z-score)", "setting": "[8]", "result": 0.332},
      {"measurement": "glycan array binding signal (z-score)", "setting": "[9]", "result": -0.317},
      {"measurement": "glycan array binding signal (z-score)", "setting": "[10]", "result": -0.249},
      {"measurement": "glycan array binding signal (z-score)", "setting": "[11]", "result": -0.01},
      {"measurement": "glycan array binding signal (z-score)", "setting": "[12]", "result": -0.163},
      {"measurement": "glycan array binding signal (z-score)", "setting": "[13]", "result": -0.463},
      {"measurement": "glycan array binding signal (z-score)", "setting": "[14]", "result": -0.324},
      {"measurement": "glycan array binding signal (z-score)", "setting": "[15]", "result": -0.327},
      {"measurement": "glycan array binding signal (z-score)", "setting": "[16]", "result": 0.524},
      {"measurement": "glycan array binding signal (z-score)", "setting": "[17]", "result": -0.195},
      {"measurement": "glycan array binding signal (z-score)", "setting": "[18]", "result": -0.419},
      {"measurement": "glycan array binding signal (z-score)", "setting": "[19]", "result": -0.361},
      {"measurement": "glycan array binding signal (z-score)", "setting": "[20]", "result": -0.36},
      {"measurement": "glycan array binding signal (z-score)", "setting": "[21]", "result": -0.247},
      {"measurement": "glycan array binding signal (z-score)", "setting": "[22]", "result": -0.165},
      {"measurement": "glycan array binding signal (z-score)", "setting": "[23]", "result": -0.679},
      {"measurement": "glycan array binding signal (z-score)", "setting": "[24]", "result": -0.547},
      {"measurement": "glycan array binding signal (z-score)", "setting": "[25]", "result": -0.11},
      {"measurement": "glycan array binding signal (z-score)", "setting": "[26]", "result": -0.34},
      {"measurement": "glycan array binding signal (z-score)", "setting": "[27]", "result": 1.27},
      {"measurement": "glycan array binding signal (z-score)", "setting": "[28]", "result": -0.091},
      {"measurement": "glycan array binding signal (z-score)", "setting": "[29]", "result": -0.24},
      {"measurement": "glycan array binding signal (z-score)", "setting": "[30]", "result": -0.556}
    ]}
  ]
}
